Reference: PubChem BioAssay AID493208 (National Center for Advancing Translational Sciences (NCATS), 2011)
About 340 (0.77%) of roughly 44,000 compounds were called active. Another 5% or so got no clear call; they are omitted. Calls come from the whole dose curve; as a rule, active = well fitted inhibition curve with a large enough effect; inconclusive = small, poorly fitted or top-dose-only effect; inactive = flat fitted curve, though single readings scatter. This is one part of the list.

assay: Acumen qHTS Assay for Inhibitors of the mTORC1 Signaling Pathway in MEF (Tsc2-/-, p53-/-) Cells: Sytravon; details: phospho-rpS6 immunofluorescence/PI, 24 h; series mostly up to 38.3 µM; activity change, negative = inhibition: at the top concentration;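 note: plate controls were DMSO for no effect and rapamycin for full effect; nearly all actives have a fitted effect of over 50% in size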
How it was run: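 Plate MEFs (Tsc2-/-, p53-/-, empty vector) in DMEM/10% FBS; after 24 h add compound, incubate 24 h at 37 degree Celsius; fix in PFA/TX-100, block, stain phospho-rpS6 and 10 uM PI; scan at 488 nm; report % positive cells.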

SMILES | activity change, negative = inhibition
COc1ccc(CCNC(=O)CN2C(=O)COc3ccc(S(=O)(=O)N4CCCC4)cc32)cc1OC | inactive: -1.46%
Cc1ccc(Cl)cc1N1CCN(c2nc3ccccc3c3nc(-c4cccnc4)nn23)CC1 | inactive: -3.69%
Cc1ccc(CNC(=O)c2cc(-c3ccc(C)c(C)c3)nc3ccccc23)cc1 | inactive: 4.96%
Cc1cc(Cl)ccc1NC(=O)CSc1nc2c(c(=O)[nH]1)CCC2 | inactive: -7.63%
COC(=O)c1sc(N2C(=O)c3oc4ccc(C)cc4c(=O)c3C2c2ccc(OC)cc2)nc1C (configuration not stated) | inactive: 9.18%
CCCOc1ccc(Oc2nc(NC)nc(N3CCOCC3)n2)nn1 | inactive: 1.96%
Cc1ccc(NC(=O)C(=O)NCC(c2cccnc2)N2CCN(Cc3ccccc3)CC2)cc1Cl (configuration not stated) | inactive: 11.9%
CCOc1ccc(CCNC(=O)c2cnc3sc(N4CCCCC4)nn3c2=O)cc1 | inactive: 5.61%
COC(=O)Cc1c(C)nc2nc(-c3ccc(C)cc3)[nH]n2c1=O | inactive: -11.1%
CCOc1cccc2sc(NC(=O)CS(=O)(=O)c3ccc(C)cc3)nc12 | inactive: -3.06%
CCN(Cc1ccccc1)S(=O)(=O)c1ccc(F)c(C(=O)Nc2cc(C(F)(F)F)ccc2Cl)c1 | inactive: -0.219%
COc1ccc(N2C(=O)CSC23C(=O)N(CC(N)=O)c2ccccc23)cc1 (configuration not stated) | inactive: 2.81%
COc1ccc(-n2c(=O)c3sc4ccccc4c3n(CC(=O)NC3CCCCC3)c2=O)cc1 | inactive: -12.8%
CC(C)c1ccc(N2C(=O)N(Cc3ccccc3Cl)c3ccccc3S2(=O)=O)cc1 | inactive: -8.21%
O=C(Nc1cc(C(F)(F)F)ccc1Cl)c1cnn(-c2ccccc2)c1-n1cccc1 | inactive: -1.21%
COC(=O)c1ccc([C@H]2Nc3ccc(S(=O)(=O)Nc4cccc(C)c4)cc3[C@H]3C=CC[C@H]32)cc1 | inactive: 1%
COCCNC(=O)CCCn1c(SCc2ccccc2Cl)nc2c(sc3ccccc32)c1=O | inactive: 0%
COC(=O)c1c(-c2ccccc2)c(-c2ccccc2)nn(C)c1=O | inactive: 1.93%
CCCCOc1ccc(C(=O)N(Cc2ccco2)Cc2ccco2)cc1 | inactive: 0.766%
COc1ccccc1C1CC(=O)N(c2cccc(C(F)(F)F)c2)C2=C1C(=O)OC2 (configuration not stated) | inactive: 5%
CCC(=O)Nc1nnc2n1CCS2 | inactive: -1.55%
Cc1cccc(N(CC(N)=O)C2SC(=O)N(Cc3cccc(C(=O)O)c3)C2=O)c1 (configuration not stated) | inactive: -2.2%
Cc1cc(Br)cc2c(C(=O)OCC(=O)c3ccccc3)cc(-c3ccccc3)nc12 | inactive: 3.08%
Cc1c(-c2nnc(SCC(=O)Nc3ccc(Cl)cc3)o2)nnn1-c1ccc(F)cc1 | inactive: 4.07%
COc1ccccc1N1CCN(C(=O)c2cnc(N3CCOCC3)c3ccccc23)CC1 | inactive: -12.5%
Cc1cc(CN2CCN(c3ccc(F)cc3)CC2)cs1 | inactive: 3.15%
O=c1[nH]c(SCc2cccc(Cl)c2)nc2c1CCC2 | inactive: 0.205%
